Hit rate of the full screen: of about 45,000 compounds, about 200 (0.44%) were called active. Not shown: some 7% with an inconclusive outcome. The call rests on the fitted dose curve; in most records, active means well fitted activation curve with a large enough effect; inconclusive means small, poorly fitted or top-dose-only effect; inactive means no such curve, though single readings can be large or run the other way. Some of the results follow.
Test: qHTS of TDP-43 Inhibitors: NCGC Sytravon Library Screen; further: 0% is about no effect; nearly all actives have a fitted effect of over 55% in size
Details: yeast TDP-43 toxicity rescue, BacTiter-Glo growth, 24 h; series mostly up to 46.1 µM; growth rescue (activation): at the top concentration
Procedure, shortened: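 TDP-43-expressing yeast, pregrown in raffinose, seeded at OD600 0.02 in galactose medium with compound for 24 hr at 30 deg C. Growth read by BacTiter-Glo luminescence, so rescue of toxicity appears as activation.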

Row | Structure (SMILES) | growth rescue (activation)
1 | CSc1nsc(SCC(=O)Nc2cccc(C(=O)O)c2)n1 | inactive: -5.3%
2 | COc1ccc(O)c(C2=Nc3ccccc3N=C(c3ccco3)C2)c1 | inactive: -3.76%
3 | COc1cccc(C(=O)OCC(=O)N2CCc3ccccc3C2)c1OC | inactive: 22.7%
4 | O=C(OC1CCOC1=O)c1ccc(Cl)c(S(=O)(=O)N2CCCCC2)c1 (centres undefined) | inactive: 17.6%
5 | Fc1ccccc1/C=N/n1cc(-c2ccccc2)[nH]c1=S | inactive: 11.1%
6 | COC(=O)C1(CCSC)NC(c2ccc(O)c(OC)c2)C2C(=O)N(c3ccc(C)cc3)C(=O)C21 (centres undefined) | inactive: 8.53%
7 | COc1cc(S(=O)(=O)N2CCN(C(=O)c3ccccc3)CC2)c(OC)cc1Br | inactive: 13.9%
8 | CCC1C(=O)N=C(SCC(=O)Nc2nc3ccccc3s2)NC1=O (centres undefined) | inactive: -8.29%
9 | Nc1ncc(-c2ccccc2)c(-c2ccc(O)cc2O)n1 | inactive: -2.75%
10 | CCN(CC)c1nc(-c2ccc(C(=O)NN)cc2)nc(-c2ccc(C(=O)NN)cc2)n1 | inactive: -6.21%
11 | COc1ccc(OCC(=O)N/N=C(\C)CC(=O)Nc2cccc([N+](=O)[O-])c2)cc1 | inactive: 16.7%
12 | Cc1cc(/C=C2/NC(=O)NC2=O)c(C)n1-c1ccccn1 | inactive: -17.2%
13 | O=C(COC(=O)[C@@H]1CC(O)CN1S(=O)(=O)c1ccccc1[N+](=O)[O-])Nc1ccc2ccccc2c1 (some centres undefined) | inactive: 27.5%
14 | CCc1nc2nc(C)c(NS(=O)(=O)c3ccc(C)c(C)c3)c(=O)n2[nH]1 | inactive: 14.2%
15 | Cc1ccc(NC(=O)N2CCCC2C(=O)Nc2c(C)cc(C)cc2C)cc1 (centres undefined) | inactive: 4.45%
16 | COc1ccccc1N(C)S(=O)(=O)c1ccc(C(=O)Nc2ccc(N3CCOCC3)cc2)cc1 | inactive: 15.9%
17 | N=c1c2c(ncn1Cc1ccco1)Oc1c(ccc3ccccc13)C2c1ccccc1 (centres undefined) | inactive: 17.3%
18 | COc1ccc(CNC(=O)c2ccc(-c3ccc(F)c(F)c3)c3ccoc23)cc1OC | inactive: 13.3%
19 | O=C(NCc1cccnc1)c1ccccc1-c1nc(-c2ccccc2)no1 | inactive: 0.781%
20 | O=C(NC1CCCCCC1)c1cc(-c2ccccn2)nc2ccccc12 | inactive: 6.75%
21 | COc1ccc(/C=C/C(=O)N/C(=C\c2ccco2)C(=O)NCCc2nc3ccccc3[nH]2)cc1 | inactive: 10.2%
22 | COc1cc(C)c(Cl)cc1S(=O)(=O)n1ccnc1 | inactive: -9.14%
23 | CCn1cc([N+](=O)[O-])nc1C | inactive: -25.7%
24 | CCCNC(=O)C1(C)CCCN(Cc2ccc(-n3ccnc3)cc2)C1 (centres undefined) | inactive: 11.3%
25 | Nc1c(C(=O)O)sc2nc(-c3ccccc3)cc(-c3ccc(Cl)cc3)c12 | inactive: -5.74%
26 | COc1cccc(/C=N/NC(=O)CNC(=O)C(c2ccccc2)c2ccccc2)c1O | inactive: -0.51%
27 | CCC(=O)N/N=C/c1ccc(-c2ccc([N+](=O)[O-])cc2)o1 | inactive: 23.7%
28 | N=c1sccn1CC(=O)NC(=O)NC1CCCC1 | inactive: 9.55%
29 | Cc1cc(Br)ccc1NC(=O)C1C2CCC(O2)C1C(=O)O (centres undefined) | inactive: -6.91%

Reference: PubChem BioAssay AID1347073 (National Center for Advancing Translational Sciences (NCATS), 2019)
